From PubChem BioAssay AID1671188 (National Center for Advancing Translational Sciences (NCATS), 2021)
The campaign covered roughly 100,000 compounds. About 250 (0.25%) were called active. This list was built around the results that the source calls inconclusive (neither active nor inactive); the mix of calls is not that of the screen. The call rests on the fitted dose curve; in most records, active means well fitted inhibition curve with a large enough effect; inconclusive means small, poorly fitted or top-dose-only effect; inactive means flat fitted curve, though single readings scatter. No potency is given beside an inconclusive call; the fits are too rough.
Further: nearly all actives have a fitted effect of over 60% in size.
On the % scale 0 is the no-effect control and ±100 the full control effect; potency means the concentration at half of the fitted maximal effect; tags describe the fitted curve by direction and shape.

Each compound was assayed against Alanine aminotransferase 2 (Homo sapiens) (UniProt Q8TD30) (assay: Primary qHTS assay for inhibitors of Glutamate pyruvate transaminase 2 (GPT2)). Details: Recombinant GPT2, coupled pyruvate oxidase/HRP Amplex Red fluorescence; activity change, negative = inhibition: at 57.7 µM (top of the series) unless noted; series mostly up to 57.7 µM.
UniProt Q8TD30, sequence (Q8TD30 whole entry, looked up): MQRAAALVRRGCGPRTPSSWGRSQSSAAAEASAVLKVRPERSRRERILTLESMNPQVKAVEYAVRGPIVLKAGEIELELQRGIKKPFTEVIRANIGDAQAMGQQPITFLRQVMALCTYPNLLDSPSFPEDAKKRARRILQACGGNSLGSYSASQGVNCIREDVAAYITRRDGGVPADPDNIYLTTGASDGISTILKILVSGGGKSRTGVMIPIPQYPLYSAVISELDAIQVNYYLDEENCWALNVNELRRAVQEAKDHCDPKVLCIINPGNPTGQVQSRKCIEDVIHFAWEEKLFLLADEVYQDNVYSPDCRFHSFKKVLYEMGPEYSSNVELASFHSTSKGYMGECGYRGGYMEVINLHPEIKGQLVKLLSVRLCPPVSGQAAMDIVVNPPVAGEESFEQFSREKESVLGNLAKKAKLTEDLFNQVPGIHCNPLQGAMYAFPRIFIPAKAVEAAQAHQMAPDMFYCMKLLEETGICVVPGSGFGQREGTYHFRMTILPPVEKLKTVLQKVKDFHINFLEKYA
Summary of the method: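 GPT2 10ng/uL, a-KG 250uM, L-Ala 2mM, HEPES pH7.5 + 0.0001% Tween; 30 min RT. Then Amplex mix (PO/HRP/ThPP), 30 min RT dark, fluorescence. AOA 50uM used as positive control.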
For `COc1ccc(CCNC(=O)C2CN(C3CCCCC3)C(=O)N2)cc1` (stereo not drawn), the “activity change, negative = inhibition” value was inactive: 2.03% [at 88.5 µM]. With `c1ccc2ncc(CNC[C@H]3Cn4c(-c5ccc6c(c5)OCCO6)cnc4CO3)cc2c1` the Potency was inconclusive [inhibitor, single point]. `COc1cc(C(=O)OC[C@H]2O[C@@H](Oc3ccccc3/C=C/C(=O)O)[C@H](O)[C@@H](O)[C@@H]2O)cc(OC)c1OC` was tested, and the Potency was inconclusive [inhibitor, single point]. For `NC(=O)[C@H](Cc1ccccc1)N1CC[C@H]2CN(C(=O)C3CCCCC3)CC[C@H]2CC1=O`, the Potency was inconclusive [inhibitor, single point]. In the case of `C=CCN1CCc2cc(O)c(O)cc2C(c2ccccc2)C1` (stereo not drawn), the Potency is reported as inconclusive [inhibitor, single point]. `CN1CC(=O)N(C2CCC2)Cc2c1ncnc2N1CCc2ccccc2C1` was tested, and the Potency was inconclusive [inhibitor, partial curve, poor fit]. With `CCS(=O)(=O)N1CC(F)(F)C[C@H]1c1nc(CCOC)no1` the Potency was inconclusive [inhibitor, partial curve]. `Cc1ncsc1CN1CCc2nc(N3CCN(C)CC3)[nH]c(=O)c2CC1` was tested, and the Potency was inconclusive [inhibitor, single point]. For `O=C(CCC1CCCN(S(=O)(=O)c2ccccc2)C1)N1CCc2ccccc2C1` (stereo not drawn), the Potency was inconclusive [inhibitor, full curve, poor fit]. For `CC1CC(=O)[C@]2(O)C(C(=O)OCCc3ccc(O)cc3)=CO[C@@H](O[C@@H]3O[C@H](CO)[C@@H](O)[C@H](O)[C@H]3O)[C@H]12` (stereo partly drawn), the Potency was inconclusive [inhibitor, single point]. In the case of `CN(C)C[C@@H]1CN(S(C)(=O)=O)C[C@H]1NC(=O)CCc1c[nH]c2ccccc12`, the “outcome” value is reported as “inactive”. With `CCOC(=O)c1csc(Nc2ccc(Cl)cc2)n1` the Potency was inconclusive [inhibitor, single point]. `Cc1cc(C)n(Cc2ccc(C(=O)N3CCCCCC3c3nnc(-c4ccccc4)o3)o2)n1` (stereo not drawn) was tested, and the “outcome” value was “inactive”. With `O=C(c1ccccc1F)N1CCCC1C(=O)N1CCCC1c1nc2ccncc2[nH]1` (stereo not drawn) the Potency was inconclusive [inhibitor, single point]. For `CCCC(=O)N1Cc2ccccc2CC2(CCN(CC)C2)C1` (stereo not drawn), the Potency was inconclusive [inhibitor, single point]. `COc1ccccc1-c1cc(C(=O)NCc2cccnc2)c2cnn(C)c2n1` was tested, and the Potency was inconclusive [inhibitor, single point]. With `COc1ccc(-c2cc(C[C@@H]3CC[C@H](O)[C@@H](CNCc4ccccc4OC)O3)no2)cc1` the “activity change, negative = inhibition” value was inactive: -3.75% [at 88.5 µM]. `O=C(c1ccccc1F)N1CCn2c(nnc2-c2ccncc2)C1` was tested, and the Potency was inconclusive [inhibitor, single point]. With `CCc1ccccc1S(=O)(=O)N1CCCC(Cn2c(C3CC3)nc3cccnc32)C1` (stereo not drawn) the “activity change, negative = inhibition” value was inactive: 0.345%. With `Cc1nc(C)c(CC(=O)NC2CC(c3cc(=O)[nH]cn3)C2)s1` (stereo not drawn) the Potency was inconclusive [inhibitor, full curve, poor fit]. In the case of `COc1ccccc1-c1ccc(C(=O)N2CCC(NC(=O)c3ccc(Cl)cc3)CC2)cc1`, the Potency is reported as inconclusive [inhibitor, single point]. With `NCCc1n[nH]c(=O)n1-c1ccc(Cl)cc1` the “outcome” value was “inactive”. `CN1CCCN(S(=O)(=O)c2ccccc2F)c2ccccc21` was tested, and the Potency was inconclusive [inhibitor, single point]. For `O=C(NCC1CC1)[C@H]1CN(Cc2ccccc2)C[C@H]1C(=O)O`, the Potency was inconclusive [inhibitor, single point]. In the case of `CC(C)Cc1noc(-c2ccc(N3CCCC(C(C)(C)O)C3)nc2)n1` (stereo not drawn), the Potency is reported as inconclusive [inhibitor, single point]. In the case of `COc1ccc(-c2noc([C@@H]3Cc4nc[nH]c4CN3Cc3ccc(NC(C)=O)cc3)n2)cc1`, the Potency is reported as inconclusive [inhibitor, single point]. `CCOC(=O)C1(Cc2cccc(OC)c2)CCCN(C(=O)CSc2ccncc2)C1` (stereo not drawn) was tested, and the Potency was inconclusive [inhibitor, single point]. For `c1ccc(CCc2noc(-c3ccc(N4CCCOCC4)nc3)n2)cc1`, the Potency was inconclusive [inhibitor, partial curve]. For `O=C(NCC1CCCN(Cc2ncccn2)C1)c1ccc(-c2ccccc2)cc1` (stereo not drawn), the Potency was inconclusive [inhibitor, partial curve, poor fit]. `Cc1cccc(NC(=O)c2ccc3c(c2)N(C)C2CCCN2C3=O)c1C` (stereo not drawn) was tested, and the Potency was inconclusive [inhibitor, single point]. In the case of `Cc1cccc(OCC(=O)N[C@@H]2CN(c3ncccn3)C[C@H]2CN(C)C)c1`, the “activity change, negative = inhibition” value is reported as inactive: -17.8%. For `CNC(=O)CCn1ncc2cc(OCc3ccccc3-c3ccc(F)cc3F)ccc21`, the Potency was inconclusive [inhibitor, partial curve, poor fit]. `CCN(CCn1cccn1)C(=O)c1ccc2nc(-c3ccc(F)cc3)cn2c1` was tested, and the Potency was inconclusive [inhibitor, full curve, poor fit]. In the case of `Cc1nc(N2CCC(N[C@H]3Cc4ccccc4[C@@H]3N)CC2)c2ccsc2n1`, the Potency is reported as inconclusive [inhibitor, full curve, poor fit]. In the case of `O=C(NCCc1cccs1)c1cc2n(n1)CC(c1ccc3c(c1)OCO3)OC2` (stereo not drawn), the Potency is reported as inconclusive [inhibitor, partial curve, poor fit]. `CCCc1cc(C(=O)N2CC[C@@H]3[C@@H](CCC(=O)N3CC(C)C)C2)ccn1` was tested, and the Potency was inconclusive [inhibitor, single point]. With `CC[C@@]1(C(=O)O)C[C@H](C(=O)NCc2ccncc2)[C@H](c2ccc(OC)cc2)N1C` the Potency was inconclusive [inhibitor, single point]. For `COc1cccc(NC(=O)c2ccc3c(c2)NC(C)(CCCCN2CCOCC2)CO3)c1` (stereo not drawn), the Potency was inconclusive [inhibitor, single point]. In the case of `O=C(O)c1ccccc1Nc1cccc(C(F)(F)F)c1`, the “activity change, negative = inhibition” value is reported as inactive: -5.88%. For `CC(=O)N1CCC2(CC1)OC(=O)N(Cc1ccccc1F)C2(C)c1ccccc1` (stereo not drawn), the “activity change, negative = inhibition” value was inactive: -2.75% [at 88.5 µM]. In the case of `Cc1ccc(-c2cc(C(=O)NCC(F)F)c3cnn(C)c3n2)c(C)c1`, the Potency is reported as inconclusive [inhibitor, single point]. `COc1ccc(C(=O)N2CCC3(CC2)CN(c2ccccc2)C3=O)cc1OC` was tested, and the Potency was inconclusive [inhibitor, single point]. For `C[S+](CC[C@H](N)C(=O)[O-])C[C@H]1O[C@@H](n2cnc3c(N)ncnc32)[C@H](O)[C@@H]1O` (stereo partly drawn), the Potency was inconclusive [inhibitor, full curve, poor fit]. For `CC(=O)Nc1ccc([C@@H](O)[C@H]2COCC(=O)N2CC(C)C)cc1`, the Potency was inconclusive [inhibitor, single point]. In the case of `Cc1ccc(OCc2nc(C3CN(C(=O)C4(c5ccccc5)CC4)C3)no2)cc1`, the “outcome” value is reported as “inactive”. In the case of `Cc1cccc(CN2C[C@@H]3[C@H](C2)N(Cc2ccc(O)cc2)C(=O)C(C)(C)[S+]3(=O)[O-])c1`, the Potency is reported as inconclusive [inhibitor, single point]. `CN(C)c1ccc(C(=C2C=CC(=[N+](C)C)C=C2)c2ccccc2)cc1` was tested, and the Potency was inconclusive [inhibitor, partial curve, poor fit]. For `COCCCNC(=O)C(NC(=O)c1ccc(C)cc1)C1CCN(C(=O)c2cccs2)CC1` (stereo not drawn), the Potency was inconclusive [inhibitor, single point]. `COCCn1c(C)cnc1CCNS(=O)(=O)c1ccc2c(c1)CCC2` was tested, and the “outcome” value was “inactive”. With `Cc1ccc(-c2cc(N3CCCN(C(=O)c4ccco4)CC3)n[nH]2)cc1C` the “outcome” value was “inactive”. With `COc1cccc(-c2nn(-c3ccccc3)c(OC(C)=O)c2-c2ccc(NC(=O)C3CCCC3)cc2)c1` the Potency was active: 7.08 µM. With `O=C1CC2(CCN([S+](=O)([O-])c3cccc(C(F)(F)F)c3)CC2)Oc2cc(Cl)ccc21` the Potency was inconclusive [inhibitor, single point]. With `O=C(Nc1cc(F)c(F)c(F)c1)N1CCC(OC2CCN(Cc3ccccc3)CC2)CC1` the “activity change, negative = inhibition” value was inactive: -8.31%. For `CCNc1cc(N2CCC(CCC(=O)NCCN3CCCCCC3)CC2)ncn1`, the Potency was inconclusive [inhibitor, single point]. In the case of `Oc1ccccc1CN1CCNc2cc(-c3ccccc3)ncc2C1`, the “activity change, negative = inhibition” value is reported as inactive: 4.38% [at 88.5 µM]. `CC(=O)NC1(C)CCCN(c2ccc(Oc3ccccc3)cc2)C1` (stereo not drawn) was tested, and the Potency was inconclusive [inhibitor, full curve, poor fit]. For `Cc1nn(-c2ccccc2)c(Oc2ccccc2F)c1CCC(=O)N1CCSCC1`, the Potency was inconclusive [inhibitor, single point]. With `CN1CC(=O)N(c2ccccc2F)Cc2c(NCCc3ccccc3)ncnc21` the Potency was inconclusive [inhibitor, single point]. With `CC(C)CCN(C1CCOCC1)C1CCN(C(=O)c2ccc(F)cc2)CC1` the Potency was inconclusive [inhibitor, single point]. In the case of `CS(=O)(=O)c1ccc(CN2CCC3(CCNCC3)C2)cc1`, the Potency is reported as inconclusive [inhibitor, full curve, poor fit]. For `CCCCC1C(=O)N(C)CCN1c1nc2c(s1)c(C)nn2C` (stereo not drawn), the Potency was inconclusive [inhibitor, single point]. In the case of `Cc1nn(CC(=O)NCc2ccc(N(C)C)cc2)c(=O)c2nc(C(C)C)sc12`, the “activity change, negative = inhibition” value is reported as inactive: 1.08%. For `COc1ccc(C2(C(=O)N3CCCC(c4nc(-c5ccccc5)no4)CCNC(=O)CC3)CC2)cc1` (stereo not drawn), the “outcome” value was “inactive”.
